Source: paper PMC4336329 (PLoS ONE, 2015)
In all, about 310,000 compounds went through this assay and about 14,000 (4.5%) showed an effect of 50% or more. The effect is printed as a negative number. The list shows a part of the results.

biological target: human ether-à-go-go-related gene (hERG) potassium channel (human, UniProt Q12809); test: primary screen, population patch clamp on CHO cells stably expressing hERG
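Further: peak tail current of the secondary pulse compared with the same well before compound.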

Chain of human ether-à-go-go-related gene (hERG) potassium channel (Q12809 whole entry, looked up): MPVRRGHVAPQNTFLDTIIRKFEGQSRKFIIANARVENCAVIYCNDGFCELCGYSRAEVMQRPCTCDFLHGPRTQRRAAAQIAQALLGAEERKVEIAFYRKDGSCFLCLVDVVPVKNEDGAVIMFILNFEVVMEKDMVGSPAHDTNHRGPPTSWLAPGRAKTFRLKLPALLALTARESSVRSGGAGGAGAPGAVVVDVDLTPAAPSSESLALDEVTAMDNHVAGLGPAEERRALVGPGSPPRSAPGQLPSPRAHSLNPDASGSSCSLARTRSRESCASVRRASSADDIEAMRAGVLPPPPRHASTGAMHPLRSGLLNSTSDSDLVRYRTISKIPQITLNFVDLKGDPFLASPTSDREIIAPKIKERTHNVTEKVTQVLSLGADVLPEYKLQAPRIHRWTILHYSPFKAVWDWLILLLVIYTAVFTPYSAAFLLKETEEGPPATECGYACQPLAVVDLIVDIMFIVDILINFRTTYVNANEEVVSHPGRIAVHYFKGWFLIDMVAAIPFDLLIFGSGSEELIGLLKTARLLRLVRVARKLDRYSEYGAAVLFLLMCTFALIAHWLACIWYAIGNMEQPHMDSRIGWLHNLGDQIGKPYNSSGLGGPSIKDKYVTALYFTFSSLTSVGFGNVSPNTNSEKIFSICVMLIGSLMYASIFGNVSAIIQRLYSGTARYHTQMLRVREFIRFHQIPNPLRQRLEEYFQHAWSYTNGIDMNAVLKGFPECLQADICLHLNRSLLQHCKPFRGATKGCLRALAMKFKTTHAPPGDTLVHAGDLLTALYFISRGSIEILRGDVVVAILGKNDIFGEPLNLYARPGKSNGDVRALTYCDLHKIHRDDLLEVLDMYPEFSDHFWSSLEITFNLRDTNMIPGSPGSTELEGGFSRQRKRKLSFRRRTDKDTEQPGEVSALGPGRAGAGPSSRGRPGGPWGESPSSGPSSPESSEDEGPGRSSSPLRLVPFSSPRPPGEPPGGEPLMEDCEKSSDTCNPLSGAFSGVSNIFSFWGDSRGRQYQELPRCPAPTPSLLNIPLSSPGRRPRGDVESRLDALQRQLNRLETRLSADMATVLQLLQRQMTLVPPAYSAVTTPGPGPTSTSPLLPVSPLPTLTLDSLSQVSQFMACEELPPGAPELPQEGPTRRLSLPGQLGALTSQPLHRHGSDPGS

Question: With `CCc1nnc(NC(=O)Cc2ccc(OCc3c(C)noc3C)cc2)s1` as the compound, how does the “hERG current change (%, negative = inhibition) at 10uM” value read?
Answer: 2.89%

Question: For `CC(=O)NS(=O)(=O)c1ccc(NC(=S)NC(=O)C(C)(C)C)cc1`, which “hERG current change (%, negative = inhibition) at 10uM” value is on record?
Answer: -10.6%

Question: With `CCC(Sc1nnnn1-c1ccccc1)C(=O)NC(C)c1ccccc1` (stereo not shown) as the compound, how does the “hERG current change (%, negative = inhibition) at 10uM” value read?
Answer: -17.9%

Question: Which “hERG current change (%, negative = inhibition) at 10uM” value does the source give for `CC1(c2nnc(-c3ccccc3)o2)CC(c2ccc([N+](=O)[O-])cc2)=NO1` (stereo not shown) here?
Answer: 4.53%

Question: `COC(=O)c1c(-c2c(Cl)cccc2Cl)noc1NC(=O)NN1CCOCC1` was tested. Which “hERG current change (%, negative = inhibition) at 10uM” value did it give?
Answer: -10.3%

Question: How did the “hERG current change (%, negative = inhibition) at 10uM” value turn out when `O=c1c2cnn(-c3ccccc3)c2nnn1Cc1ccccn1` was run?
Answer: -21.9%

Question: How did the “hERG current change (%, negative = inhibition) at 10uM” value turn out when `CCCC(=O)NC(=S)Nc1ccc(N2CCOCC2)c(Cl)c1` was run?
Answer: -13.4%

Question: With `CC(=O)/C(C#N)=C1\NC(=O)C(Cc2ccccc2Cl)S1` (stereo not shown) as the compound, how does the “hERG current change (%, negative = inhibition) at 10uM” value read?
Answer: 2.38%

Question: Which “hERG current change (%, negative = inhibition) at 10uM” value does the source give for `Cn1cccc1C1C(C#N)=C(N)OC2=C1C(=O)CC(C)(C)C2` (stereo not shown) here?
Answer: -1.67%

Question: For `O=C(Cc1ccc(Cl)c(Cl)c1)Nc1cccc2ncccc12`, which “hERG current change (%, negative = inhibition) at 10uM” value is on record?
Answer: 20.2%

Question: Which “hERG current change (%, negative = inhibition) at 10uM” value does the source give for `O=C(CCN1CCN(Cc2ccccc2)CC1)Nc1cccc(Cl)c1` here?
Answer: -70.6%

Question: For `O=C(NCCS(=O)(=O)N1CCN(c2ccccc2)CC1)c1ccc2c(c1)OCO2`, which “hERG current change (%, negative = inhibition) at 10uM” value is on record?
Answer: -3.59%

Question: How did the “hERG current change (%, negative = inhibition) at 10uM” value turn out when `O=C(Cc1n[nH]c(=O)c2ccccc12)OCC(=O)c1ccc(OC(F)F)cc1OC(F)F` was run?
Answer: -8.78%

Question: For `S=C(NCc1ccccc1)NCc1ccco1`, which “hERG current change (%, negative = inhibition) at 10uM” value is on record?
Answer: 8.29%

Question: With `COc1ccc(S(=O)(=O)N2CCCCC2)cc1NC(=O)c1ccccc1` as the compound, how does the “hERG current change (%, negative = inhibition) at 10uM” value read?
Answer: 13.7%

Question: For `COc1cc(NC(=O)c2ccc(C)cc2)c(OC)cc1NC(=O)CN1CCCCC1`, which “hERG current change (%, negative = inhibition) at 10uM” value is on record?
Answer: -15.1%

Question: Which “hERG current change (%, negative = inhibition) at 10uM” value does the source give for `COCCCN1C(=O)c2ccc(C(=O)NCc3ccccn3)cc2C1=O` here?
Answer: -1.71%

Question: For `Cc1ccc2[nH]c(C)c(/C=N/Nc3nc4ccccc4s3)c2c1`, which “hERG current change (%, negative = inhibition) at 10uM” value is on record?
Answer: 0.648%

Question: How did the “hERG current change (%, negative = inhibition) at 10uM” value turn out when `O=C(NCc1cccnc1)C(=O)Nc1nccs1` was run?
Answer: 22%

Question: How did the “hERG current change (%, negative = inhibition) at 10uM” value turn out when `COc1cc(OC)cc(C(=O)NNC(=O)CCC(=O)c2cccs2)c1` was run?
Answer: 17.6%

Question: How did the “hERG current change (%, negative = inhibition) at 10uM” value turn out when `COc1cc(CC(=O)OCC(=O)Nc2ccc3c(c2)OCO3)cc(OC)c1OC` was run?
Answer: 5.01%

Question: `O=C(NCCCN1CCOCC1)c1c(F)c(F)c(F)c(F)c1F` was tested. Which “hERG current change (%, negative = inhibition) at 10uM” value did it give?
Answer: 20.7%

Question: How did the “hERG current change (%, negative = inhibition) at 10uM” value turn out when `O=C(OCc1ccc(COC(=O)c2ccc(O)cc2)cc1)c1ccc(O)cc1` was run?
Answer: 9.09%

Question: Which “hERG current change (%, negative = inhibition) at 10uM” value does the source give for `COc1cc([N+](=O)[O-])ccc1NC(=S)N1CCN(c2ccccn2)CC1` here?
Answer: -39.4%

Question: Which “hERG current change (%, negative = inhibition) at 10uM” value does the source give for `CCSC1(SCC)N=C(N)C2(C#N)C(c3ccccc3)NC3=C(CCC3)C12C#N` (stereo not shown) here?
Answer: 13%
